# In PubChem BioAssay AID624417 (National Center for Advancing Translational Sciences (NCATS), 2012):
# About 6,400 (1.6%) of roughly 410,000 compounds were called active. This list was built around the results that the source calls inconclusive (neither active nor inactive); the mix of calls is not that of the screen. The call rests on the fitted dose curve; in most records, active means well fitted inhibition curve with a large enough effect; inconclusive means small, poorly fitted or top-dose-only effect; inactive means no such curve, though single readings can be large or run the other way. No potency is given beside an inconclusive call; the fits are too rough.
# Target: Glucagon-like peptide 1 receptor (Homo sapiens) (UniProt P43220)
# UniProt P43220, sequence (P43220 whole entry, looked up): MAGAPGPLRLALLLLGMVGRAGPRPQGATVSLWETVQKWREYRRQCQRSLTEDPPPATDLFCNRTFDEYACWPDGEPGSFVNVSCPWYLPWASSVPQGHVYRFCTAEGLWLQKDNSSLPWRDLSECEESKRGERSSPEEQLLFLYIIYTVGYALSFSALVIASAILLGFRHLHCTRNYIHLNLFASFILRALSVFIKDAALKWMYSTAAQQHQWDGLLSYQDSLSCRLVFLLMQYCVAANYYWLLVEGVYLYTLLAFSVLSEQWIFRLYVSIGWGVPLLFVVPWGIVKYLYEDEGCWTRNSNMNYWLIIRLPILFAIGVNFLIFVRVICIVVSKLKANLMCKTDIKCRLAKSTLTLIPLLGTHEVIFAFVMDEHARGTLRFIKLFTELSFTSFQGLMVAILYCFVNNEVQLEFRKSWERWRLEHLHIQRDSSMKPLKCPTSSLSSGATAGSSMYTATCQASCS
# Test: qHTS of GLP-1 Receptor Inverse Agonists (Inhibition Mode); further: nearly all actives have a fitted effect of over 55% in size
# Conditions: HEK293 GLP-1R CRE-luciferase, luminescence, 24 h, GLP-1R form is constitutively active; activity change, negative = inhibition: at 38.3 µM (top of the series) unless noted
# In short: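 qHTS in 1536-well format: reporter HEK293 cells expressing constitutive GLP-1R activity in DMEM + 10% Nu serum, 24 hr with compounds at 37 deg C, luminescence read after 12 min with detection reagent.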
# On the % scale 0 is the no-effect control and ±100 the full control effect; potency means the concentration at half of the fitted maximal effect; tags describe the fitted curve by direction and shape.
Compound,Potency,"activity change, negative = inhibition"
C/C=C/c1ccc(OCCCCN2CC(C)CC(C)C2)c(OC)c1 (stereo not drawn),active: 11.2 µM,
Cc1ccc(C(=O)N2CCN(c3ccc(F)cc3)CC2)cc1NC(=O)c1nsc2ccccc12,,inactive: 10.1%
Nn1c(Cc2cccc3ccccc23)nnc1SCc1ccc(Cl)c(Cl)c1,"inconclusive [inhibitor, partial curve, poor fit]",
CCCOC1CCCN(Cc2nc(-c3ccc(C(=O)OC)cc3)no2)C1 (stereo not drawn),"inconclusive [inhibitor, partial curve, poor fit]",
Cc1ccccc1OCCC(=O)OCC(=O)c1c(N)n(CC(C)C)c(=O)n(C)c1=O,"inconclusive [inhibitor, single point]",
COc1ccc(CCNC(=O)NC23CC4CC(CC(C4)C2)C3)cc1OC,"inconclusive [inhibitor, full curve, poor fit]",
O=C(Nc1ccc([N+](=O)[O-])cc1)Nc1nc(-c2ccc(Cl)s2)cs1,"inconclusive [inhibitor, full curve]",
O=C(c1cc2sccc2n1Cc1ccccc1)N1CCN(c2nc3ccccc3s2)CC1,"inconclusive [inhibitor, full curve, poor fit]",
COC(=O)c1cccc(C#CC(NP(=O)(c2ccccc2)c2ccccc2)c2ccccc2)c1 (stereo not drawn),"inconclusive [inhibitor, single point]",
O=[N+]([O-])c1ccc(N2CCc3ccccc3C2)nc1,,inactive: 9.66%
COc1cccc(C(O)c2nc(-c3cc4ccccc4o3)cs2)c1 (stereo not drawn),"inconclusive [inhibitor, single point]",
c1ccc(-c2cc(CSc3nc4ccccc4[nH]3)on2)cc1,"inconclusive [inhibitor, single point]",
C[C@@H]1CN([C@H](C)CO)S(=O)(=O)c2ccc(-c3ccc(C#N)cc3)cc2O[C@H]1CN(C)C(=O)Nc1cc(F)ccc1F,,inactive: -7.88%
CCCCOC(=O)c1ccc(NC(=O)Cc2coc3c(C)c(C)ccc23)cc1,"inconclusive [inhibitor, single point]",
Cn1c(NCCCO)nc2c(c1=O)C1(CCCCC1)Cc1ccccc1-2,"inconclusive [inhibitor, partial curve, poor fit]",
O=C(CSCc1nc2ccccc2[nH]1)Nc1ccc(Oc2ccccc2)cc1,"inconclusive [inhibitor, partial curve, poor fit]",
Cc1[nH]c2ccccc2c1C(=O)C(=O)N1CCCc2ccccc21,"inconclusive [inhibitor, partial curve, poor fit]",
CCC(=O)Nc1ccccc1-c1nnn(CC(=O)N2c3ccccc3CC2C)n1 (stereo not drawn),"inconclusive [inhibitor, single point]",
CC1CCCC(C)N1C(=O)COC(=O)c1ccccc1O (stereo not drawn),,inactive: -28.9%

Compound,Potency,"activity change, negative = inhibition"
CC1CCCCN1CC(O)COCCC12CC3CC(CC(C3)C1)C2 (stereo not drawn),"inconclusive [inhibitor, full curve, poor fit]",
COc1ccc(C(C(=O)Nc2c(C)cccc2C)n2c(=O)c(-c3ccccc3)nc3ccccc32)cc1 (stereo not drawn),"inconclusive [inhibitor, partial curve, poor fit]",
COc1cc(OC)cc(C(=O)NNC(=O)c2ccc(S(=O)(=O)N(C)c3ccccc3OC)cc2)c1,"inconclusive [inhibitor, partial curve, poor fit]",
Cc1cc(C)cc(NC(=O)c2ccc3c(O)c(S(=O)(=O)c4ccccc4)c(=O)[nH]c3c2)c1,,inactive: 12.6%
Nc1nc2ccccc2cc1C(=O)NCc1ccc(-c2ccccc2)cc1,"inconclusive [inhibitor, full curve, poor fit]",
COc1cc(NC(=O)NCCN2CCN(c3ccc(Cl)cc3)CC2)ccc1C,"inconclusive [inhibitor, full curve, poor fit]",
O=C1/C(=C/c2ccccc2)SC(=S)N1CC(=O)N1CCCCC1c1cccnc1 (stereo not drawn),"inconclusive [inhibitor, partial curve, poor fit]",
COc1ccc(NC(=O)CN2C(=O)NC3(CCCCCC3)C2=O)cc1Cl,"inconclusive [inhibitor, partial curve]",
COc1ccc(/C(C)=N/Nc2nc3ccccc3nc2C)cc1,"inconclusive [inhibitor, single point]",
CC(=O)c1cccc(-c2ccnc3c2CC(C(=O)Nc2ccc(Cl)cc2)O3)c1 (stereo not drawn),"inconclusive [inhibitor, partial curve]",
CC(C)CN(C(=O)COC(=O)/C=C/c1cccs1)c1c(N)n(Cc2ccccc2)c(=O)[nH]c1=O,"inconclusive [inhibitor, single point]",
Cc1cc(NC(=O)COc2ccc(Cl)cc2Cl)n(-c2ccccc2)n1,"inconclusive [inhibitor, full curve, poor fit]",
CC(=O)N1N=C2c3ccccc3CCC2C1c1ccc(F)cc1 (stereo not drawn),"inconclusive [inhibitor, partial curve, poor fit]",
Nc1cc(C(F)(F)F)cc([N+](=O)[O-])c1N,"inconclusive [inhibitor, partial curve, poor fit]",
COc1cc(Br)c(CN2C(=O)NC3(CCCCCC3)C2=O)cc1OC,"inconclusive [inhibitor, full curve, poor fit]",
O=S(=O)(c1ccccc1F)N1CCN(Cc2cc3c(cc2Br)OCCO3)CC1,"inconclusive [inhibitor, single point]",
CCc1ccc(-c2cc(C)no2)cc1S(=O)(=O)NCCN1CCC(C)CC1,"inconclusive [inhibitor, partial curve, poor fit]",
CCN(CC(=O)Nc1cccc(OC)c1)CC(=O)Nc1cccc2ccccc12,"inconclusive [inhibitor, partial curve, poor fit]",
CCOC(=O)C1=CCN(S(=O)(=O)c2ccccc2Br)C1c1ccccc1 (stereo not drawn),"inconclusive [inhibitor, partial curve]",
